The record followed here is the supplement of paper PMC10369915.

The list shows a part of the results. No stated cut-off is given here; in the data, active = 3.2 or more and inactive = the rest. Most of these values are background signal.

The chains are these.
B1: KRT16_Y417_L421P (peptide)
chain: QEIATYRRLPE
B2: KRT17_Y98_L95P (peptide)
chain: DRPASYLDKVR
B3: KRT14_Y415_R417P (peptide)
chain: QEIATYRPLLE
B4: KRT14_Y151_R148C (peptide)
chain: KICDWYQRQRP
B5: KRT12_Y139_R135G (peptide)
chain: DGLASYLDKVR
B6: KRT12_Y139_R135I (peptide)
chain: DILASYLDKVR
B7: KRT12_Y139_V143L (peptide)
chain: DRLASYLDKLR
B8: KRT12_Y139_A137P (peptide)
chain: DRLPSYLDKVR
B9: KRT13_Y118_L119P (peptide)
chain: DRLASYPEKVR
B10: KRT14_Y415_A413T (peptide)
chain: QEITTYRRLLE
B11: KRT16_Y131_L128Q (peptide)
chain: DRQASYLDKVR
B12: KRT12_Y429_L433R (peptide)
chain: LEIETYRRLRD
B13: KRT14_Y415_R416P (peptide)
chain: QEIATYPRLLE
B14: KRT14_Y151 (peptide)
chain: KIRDWYQRQRP
B15: KRT12_Y429_Y429C (peptide)
chain: LEIETCRRLLD
B16: KRT12_Y139_L140R (peptide)
chain: DRLASYRDKVR
B17: KRT14_Y415_L419Q (peptide)
chain: QEIATYRRLQE
B18: KRT12_Y139_L140Q (peptide)
chain: DRLASYQDKVR
B19: KRT13_Y118 (peptide)
chain: DRLASYLEKVR
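Further: displayed peptides selected on beads carrying the immobilized SH2 domain, with library peptides lacking any tyrosine serving as negative controls.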

One test addresses SHP2 C-SH2 domain E139D. Kind of test: enrichment score (SH2-bound / input frequency) (ratio); bacterial display of known human phosphotyrosine sites (pTyr-Var adds point mutants) read by sequencing; higher = stronger binding; tyrosines were phosphorylated by kinases first. The note with it: peptide library: pTyr-Var.
For B1, the enrichment score is inactive: 0.62.

B2: the enrichment score was inactive: 0.708.

Turning to B3, the enrichment score was inactive: 0.958.

Consider B4, for which the enrichment score is inactive: 0.625.

Regarding B5, the enrichment score is inactive: 0.879.

Consider B6, for which the enrichment score was inactive: 1.23.

Regarding B7, the enrichment score is inactive: 1.11.

As to B8, the enrichment score was inactive: 0.871.

Turning to B9, the enrichment score was inactive: 0.768.

In the case of B10, the enrichment score is inactive: 0.703.

Turning to B11, the enrichment score is inactive: 0.681.

As to B12, the enrichment score is inactive: 0.39.

Turning to B13, the enrichment score was inactive: 0.671.

Turning to B14, the enrichment score was inactive: 0.623.

Consider B15, for which the enrichment score was inactive: 0.872.

For B16, the enrichment score is inactive: 0.76.

With B17, the enrichment score was inactive: 0.41.

On to B18, for which the enrichment score was inactive: 1.16.

In the case of B19, the enrichment score was inactive: 0.943.

The next test concerns the target SHP2 C-SH2 domain wild-type. Described as above. The conditions noted are these: peptide library: pTyr-Var.
For the molecule B1, the enrichment score is inactive: 0.503.

As to B2, the enrichment score is inactive: 0.719.

As to B3, the enrichment score was inactive: 0.817.

Turning to B4, the enrichment score is inactive: 0.712.

B5: the enrichment score is inactive: 0.749.

Regarding B6, the enrichment score is inactive: 1.17.

Turning to B7, the enrichment score was inactive: 0.983.

Turning to B8, the enrichment score is inactive: 0.857.

With B9, the enrichment score is inactive: 0.608.

As for B10, the enrichment score was inactive: 0.609.

Take B11: the enrichment score was inactive: 0.727.

Consider B12, for which the enrichment score is inactive: 0.362.

Take B13: the enrichment score is inactive: 0.538.

For the molecule B14, the enrichment score is inactive: 0.66.

Turning to B15, the enrichment score is inactive: 1.74.

As to B16, the enrichment score is inactive: 0.624.

As to B17, the enrichment score is inactive: 0.495.

Regarding B18, the enrichment score was inactive: 0.836.

As to B19, the enrichment score is inactive: 0.808.

The target in the next test is SHP2 N-SH2 domain L43F. The description is as above. The conditions noted are these: peptide library: pTyr-Var.
In the case of B1, the enrichment score is inactive: 0.435.

B2: the enrichment score is inactive: 0.617.

As for B3, the enrichment score is inactive: 0.869.

For B4, the enrichment score is inactive: 0.625.

B5: the enrichment score was inactive: 0.813.

Consider B6, for which the enrichment score was inactive: 1.37.

Regarding B7, the enrichment score was inactive: 0.985.

Consider B8, for which the enrichment score was inactive: 1.

In the case of B9, the enrichment score is inactive: 0.723.

Consider B10, for which the enrichment score was inactive: 0.488.

B11: the enrichment score was inactive: 0.737.

In the case of B12, the enrichment score is inactive: 0.453.

For B13, the enrichment score was inactive: 0.651.

Take B14: the enrichment score is inactive: 0.576.

As for B15, the enrichment score was inactive: 1.35.

As to B16, the enrichment score was inactive: 0.736.

For B17, the enrichment score is inactive: 0.521.

On to B18, for which the enrichment score was inactive: 0.953.

For the molecule B19, the enrichment score is inactive: 0.913.

Another test deals with SHP2 N-SH2 domain T42A. The description is as above. The conditions noted are these: peptide library: pTyr-Var.
As to B1, the enrichment score was inactive: 0.5.

Take B2: the enrichment score is inactive: 0.729.

As to B3, the enrichment score is inactive: 0.708.

On to B4, for which the enrichment score was inactive: 0.504.

With B5, the enrichment score is inactive: 0.908.

For B6, the enrichment score was inactive: 1.04.

As for B7, the enrichment score is inactive: 1.06.

On to B8, for which the enrichment score is inactive: 0.76.

B9: the enrichment score was inactive: 0.783.

On to B10, for which the enrichment score was inactive: 0.402.

For the molecule B11, the enrichment score is inactive: 0.676.

For the molecule B12, the enrichment score was inactive: 0.296.

With B13, the enrichment score is inactive: 0.596.

B14: the enrichment score is inactive: 0.599.

As to B15, the enrichment score was inactive: 0.707.

B16: the enrichment score is inactive: 0.57.

On to B17, for which the enrichment score is inactive: 0.625.

Take B18: the enrichment score was inactive: 0.811.

For the molecule B19, the enrichment score was inactive: 0.841.

The target in the next test is SHP2 N-SH2 domain T52S. The description is as above. The note with it: peptide library: pTyr-Var.
In the case of B1, the enrichment score is inactive: 0.563.

B2: the enrichment score was inactive: 0.838.

As to B3, the enrichment score is inactive: 0.821.

Consider B4, for which the enrichment score was inactive: 0.521.

Consider B5, for which the enrichment score was inactive: 0.879.

For the molecule B6, the enrichment score was inactive: 1.38.

For the molecule B7, the enrichment score is inactive: 1.01.

For B8, the enrichment score is inactive: 0.943.

With B9, the enrichment score was inactive: 0.868.

Take B10: the enrichment score was inactive: 0.435.

For B11, the enrichment score was inactive: 0.682.

As to B12, the enrichment score is inactive: 0.379.

For B13, the enrichment score was inactive: 0.576.

Turning to B14, the enrichment score is inactive: 0.692.

Take B15: the enrichment score was inactive: 1.02.

For the molecule B16, the enrichment score was inactive: 0.637.

Consider B17, for which the enrichment score is inactive: 0.676.

Take B18: the enrichment score was inactive: 0.76.

With B19, the enrichment score was inactive: 0.803.

For a further test, the target named is SHP2 N-SH2 domain wild-type. Described as above. The note with it: peptide library: pTyr-Var.
In the case of B1, the enrichment score is inactive: 0.506.

In the case of B2, the enrichment score was inactive: 0.676.

As for B3, the enrichment score was inactive: 0.949.

For B4, the enrichment score was inactive: 0.543.

Take B5: the enrichment score was inactive: 1.06.

As to B6, the enrichment score was inactive: 1.49.

With B7, the enrichment score is inactive: 0.94.

As for B8, the enrichment score was inactive: 0.932.

B9: the enrichment score was inactive: 0.745.

Regarding B10, the enrichment score is inactive: 0.623.

Take B11: the enrichment score was inactive: 0.728.

B12: the enrichment score was inactive: 0.418.

B13: the enrichment score was inactive: 0.725.

As for B14, the enrichment score was inactive: 0.561.

For the molecule B15, the enrichment score was inactive: 2.34.

Regarding B16, the enrichment score was inactive: 0.732.

Take B17: the enrichment score was inactive: 0.557.

B18: the enrichment score was inactive: 0.829.

As for B19, the enrichment score is inactive: 1.09.
